US20220339143A1, “TAK-925 FOR USE IN TREATING NARCOLEPSY” (Takeda Pharmaceutical Company Limited, priority 2019, published 2022)
Further values from the same series stand in other lists.

Test: Single dose PK in healthy subjects (Cohorts 1, 2, S1 and S2), plasma
Format: in vivo, human
Conditions: for Plasma Concentration of Cmpd A, Maximum / Plasma Concentration of Cmpd A, Mean / Plasma Concentration of Cmpd A, Median / Plasma Concentration of Cmpd A, Minimum / Plasma Concentration of Cmpd A, Q1 / Plasma Concentration of Cmpd A, Q3: 180 mg single IV infusion
Experimental: This study investigates (i) the safety and tolerability of Compound A (methyl (2R,3S)-3-((methylsulfonyl)amino)-2-(((cis-4-phenylcyclohexyl)oxy)methyl)piperidine-1-carboxylate) when a single dose given as a 9 hour continuous IV infusion is administered to healthy adults, healthy elderly subjects and patients with narcolepsy type 1 (NT1); (ii) the pharmacokinetics of Compound A when a single dose given as a 9 hour continuous IV infusion is administered to healthy adults, healthy elderly subjects and patients with narcolepsy type 1; and (iii) the pharmacodynamics (PD) effects of Compound A, primarily by evaluation of the sleep latency on MWT when a single dose given as a 9 hour continuous IV infusion is administered to patients with narcolepsy type 1.
Pharmacokinetics: Concentrations of Compound A in plasma, and CSF, and pharmacokinetics parameters.
On average, the time to reach the plateau appeared to be approximately 3 to 4 hours after the start of infusion. […] After switching off the IV infusion, Compound A plasma concentrations declined rapidly and in a biphasic manner with a mean terminal disposition phase t1/2z ranging approximately from 3.4 to 5.1 hours across all doses. […] Table 5 provides a summary of plasma concentrations of Compound A after a single IV infusion in healthy subjects. Table 6 provides a summary of pharmacokinetic parameters of Compound A after a single IV infusion in healthy subjects.

[1] = 112 mg, 2 hr After End of Infusion
[2] = 112 mg, 3 hr After End of Infusion
[3] = 112 mg, 4 hr After End of Infusion
[4] = 112 mg, 6 hr After End of Infusion
[5] = 112 mg, 10 hr After End of Infusion
[6] = 112 mg, 15 hr After End of Infusion
[7] = 134.4 mg, 0.33 hr After End of Infusion
[8] = 134.4 mg, 0.5 hr After End of Infusion
[9] = 134.4 mg, 0.75 hr After End of Infusion
[10] = 134.4 mg, 1 hr After End of Infusion
[11] = 134.4 mg, 1.5 hr After End of Infusion
[12] = 134.4 mg, 2 hr After End of Infusion
[13] = 134.4 mg, 3 hr After End of Infusion
[14] = 134.4 mg, 4 hr After End of Infusion
[15] = 134.4 mg, 6 hr After End of Infusion
[16] = 134.4 mg, 10 hr After End of Infusion
[17] = 134.4 mg, 15 hr After End of Infusion

COC(=O)N1CCC[C@H](NS(C)(=O)=O)[C@@H]1CO[C@H]1CC[C@@H](c2ccccc2)CC1 [Compound A, methyl (2R,3S)-3-((methylsulfonyl)amino)-2-(((cis-4-phenylcyclohexyl)oxy)methyl)piperidine-1-carboxylate]
Plasma concentration, Q1 [1]: 33.00 ng/mL
Plasma concentration, Q3 [1]: 49.20 ng/mL
Plasma concentration, Maximum [2]: 53.3 ng/mL
Plasma concentration, Mean [2]: 38.13 ng/mL
Plasma concentration, Median [2]: 39.25 ng/mL
Plasma concentration, Minimum [2]: 19.7 ng/mL
Plasma concentration, Q1 [2]: 30.00 ng/mL
Plasma concentration, Q3 [2]: 47.30 ng/mL
Plasma concentration, Maximum [3]: 48.3 ng/mL
Plasma concentration, Mean [3]: 30.68 ng/mL
Plasma concentration, Median [3]: 30.45 ng/mL
Plasma concentration, Minimum [3]: 17.4 ng/mL
Plasma concentration, Q1 [3]: 19.70 ng/mL
Plasma concentration, Q3 [3]: 37.80 ng/mL
Plasma concentration, Maximum [4]: 29.0 ng/mL
Plasma concentration, Mean [4]: 17.42 ng/mL
Plasma concentration, Median [4]: 17.25 ng/mL
Plasma concentration, Minimum [4]: 9.58 ng/mL
Plasma concentration, Q1 [4]: 9.840 ng/mL
Plasma concentration, Q3 [4]: 21.60 ng/mL
Plasma concentration, Maximum [5]: 17.3 ng/mL
Plasma concentration, Mean [5]: 8.967 ng/mL
Plasma concentration, Median [5]: 9.435 ng/mL
Plasma concentration, Minimum [5]: 3.40 ng/mL
Plasma concentration, Q1 [5]: 4.130 ng/mL
Plasma concentration, Q3 [5]: 10.10 ng/mL
Plasma concentration, Maximum [6]: 9.32 ng/mL
Plasma concentration, Mean [6]: 3.897 ng/mL
Plasma concentration, Median [6]: 3.055 ng/mL
Plasma concentration, Minimum [6]: 1.30 ng/mL
Plasma concentration, Q1 [6]: 1.610 ng/mL
Plasma concentration, Q3 [6]: 5.040 ng/mL
Plasma concentration, Mean (112 mg, Predose): 0.000 ng/mL
Plasma concentration, Maximum [7]: 183 ng/mL
Plasma concentration, Mean [7]: 140.5 ng/mL
Plasma concentration, Median [7]: 138.0 ng/mL
Plasma concentration, Minimum [7]: 105 ng/mL
Plasma concentration, Q1 [7]: 122.0 ng/mL
Plasma concentration, Q3 [7]: 157.0 ng/mL
Plasma concentration, Maximum [8]: 150 ng/mL
Plasma concentration, Mean [8]: 123.2 ng/mL
Plasma concentration, Median [8]: 127.0 ng/mL
Plasma concentration, Minimum [8]: 101 ng/mL
Plasma concentration, Q1 [8]: 102.0 ng/mL
Plasma concentration, Q3 [8]: 132.0 ng/mL
Plasma concentration, Maximum [9]: 135 ng/mL
Plasma concentration, Mean [9]: 108.7 ng/mL
Plasma concentration, Median [9]: 112.5 ng/mL
Plasma concentration, Minimum [9]: 82.4 ng/mL
Plasma concentration, Q1 [9]: 83.70 ng/mL
Plasma concentration, Q3 [9]: 126.0 ng/mL
Plasma concentration, Maximum [10]: 118 ng/mL
Plasma concentration, Mean [10]: 92.57 ng/mL
Plasma concentration, Median [10]: 90.65 ng/mL
Plasma concentration, Minimum [10]: 75.2 ng/mL
Plasma concentration, Q1 [10]: 78.90 ng/mL
Plasma concentration, Q3 [10]: 102.0 ng/mL
Plasma concentration, Maximum [11]: 115 ng/mL
Plasma concentration, Mean [11]: 81.10 ng/mL
Plasma concentration, Median [11]: 75.80 ng/mL
Plasma concentration, Minimum [11]: 65.4 ng/mL
Plasma concentration, Q1 [11]: 66.20 ng/mL
Plasma concentration, Q3 [11]: 88.40 ng/mL
Plasma concentration, Maximum [12]: 81.5 ng/mL
Plasma concentration, Mean [12]: 56.18 ng/mL
Plasma concentration, Median [12]: 52.20 ng/mL
Plasma concentration, Minimum [12]: 42.1 ng/mL
Plasma concentration, Q1 [12]: 44.70 ng/mL
Plasma concentration, Q3 [12]: 64.40 ng/mL
Plasma concentration, Maximum [13]: 62.0 ng/mL
Plasma concentration, Mean [13]: 41.53 ng/mL
Plasma concentration, Median [13]: 40.60 ng/mL
Plasma concentration, Minimum [13]: 22.2 ng/mL
Plasma concentration, Q1 [13]: 32.50 ng/mL
Plasma concentration, Q3 [13]: 51.30 ng/mL
Plasma concentration, Maximum [14]: 46.7 ng/mL
Plasma concentration, Mean [14]: 33.52 ng/mL
Plasma concentration, Median [14]: 33.20 ng/mL
Plasma concentration, Minimum [14]: 18.5 ng/mL
Plasma concentration, Q1 [14]: 27.80 ng/mL
Plasma concentration, Q3 [14]: 41.70 ng/mL
Plasma concentration, Maximum [15]: 30.5 ng/mL
Plasma concentration, Mean [15]: 19.28 ng/mL
Plasma concentration, Median [15]: 18.25 ng/mL
Plasma concentration, Minimum [15]: 9.56 ng/mL
Plasma concentration, Q1 [15]: 16.10 ng/mL
Plasma concentration, Q3 [15]: 23.00 ng/mL
Plasma concentration, Maximum [16]: 21.8 ng/mL
Plasma concentration, Mean [16]: 10.45 ng/mL
Plasma concentration, Median [16]: 9.030 ng/mL
Plasma concentration, Minimum [16]: 5.43 ng/mL
Plasma concentration, Q1 [16]: 6.380 ng/mL
Plasma concentration, Q3 [16]: 11.00 ng/mL
Plasma concentration, Maximum [17]: 10.9 ng/mL
Plasma concentration, Mean [17]: 4.465 ng/mL
Plasma concentration, Median [17]: 3.635 ng/mL
Plasma concentration, Minimum [17]: 1.54 ng/mL
Plasma concentration, Q1 [17]: 2.300 ng/mL
Plasma concentration, Q3 [17]: 4.780 ng/mL
Plasma Concentration of Cmpd A, Maximum (0.33 hr After End of Infusion): 201 ng/mL
Plasma Concentration of Cmpd A, Mean (0.33 hr After End of Infusion): 161.2 ng/mL
Plasma Concentration of Cmpd A, Median (0.33 hr After End of Infusion): 157.5 ng/mL
Plasma Concentration of Cmpd A, Minimum (0.33 hr After End of Infusion): 141 ng/mL
Plasma Concentration of Cmpd A, Q1 (0.33 hr After End of Infusion): 144.0 ng/mL
Plasma Concentration of Cmpd A, Q3 (0.33 hr After End of Infusion): 166.0 ng/mL
Plasma Concentration of Cmpd A, Maximum (0.5 hr After End of Infusion): 173 ng/mL
Plasma Concentration of Cmpd A, Mean (0.5 hr After End of Infusion): 138.8 ng/mL
Plasma Concentration of Cmpd A, Median (0.5 hr After End of Infusion): 137.5 ng/mL
Plasma Concentration of Cmpd A, Minimum (0.5 hr After End of Infusion): 117 ng/mL
Plasma Concentration of Cmpd A, Q1 (0.5 hr After End of Infusion): 120.0 ng/mL
Plasma Concentration of Cmpd A, Q3 (0.5 hr After End of Infusion): 148.0 ng/mL
Plasma Concentration of Cmpd A, Maximum (0.75 hr After End of Infusion): 134 ng/mL
Plasma Concentration of Cmpd A, Mean (0.75 hr After End of Infusion): 124.7 ng/mL
Plasma Concentration of Cmpd A, Median (0.75 hr After End of Infusion): 128.0 ng/mL
Plasma Concentration of Cmpd A, Minimum (0.75 hr After End of Infusion): 101 ng/mL
Plasma Concentration of Cmpd A, Q1 (0.75 hr After End of Infusion): 127.0 ng/mL
Plasma Concentration of Cmpd A, Q3 (0.75 hr After End of Infusion): 130.0 ng/mL
Plasma Concentration of Cmpd A, Maximum (1 hr After End of Infusion): 120 ng/mL
